Source: PubChem BioAssay AID493131 (Broad Institute, 2011)
Among all 340,000 compounds or so, about 3,300 (0.97%) were called active. The shares of active, inactive and inconclusive entries below differ from those in the screen.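 The calls were made as follows: active = mean activation above about 17%, with every replicate also reaching it (limit read from the data, passing the limit was not always enough); inconclusive = only one of the two conditions met; inactive = the rest.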

Biological target: Protein FosB (Mus musculus) (UniProt P13346)
Chain of UniProt P13346 (P13346 whole entry, looked up): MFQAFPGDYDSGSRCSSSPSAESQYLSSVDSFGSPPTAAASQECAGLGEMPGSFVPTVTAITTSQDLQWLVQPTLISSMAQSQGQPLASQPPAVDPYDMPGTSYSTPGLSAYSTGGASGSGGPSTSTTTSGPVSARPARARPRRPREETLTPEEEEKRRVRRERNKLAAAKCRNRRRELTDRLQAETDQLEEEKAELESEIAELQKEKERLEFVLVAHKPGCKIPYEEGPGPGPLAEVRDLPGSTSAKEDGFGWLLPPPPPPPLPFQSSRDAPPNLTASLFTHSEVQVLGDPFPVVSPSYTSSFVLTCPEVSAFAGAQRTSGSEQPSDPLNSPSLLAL
Test: enhancers of mouse delta FosB DNA binding – biochemical, fluorescence polarization, TAMRA-CDK5 oligo, single point, primary screen (AID 493131);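 also: fluorescence polarization rise as delta FosB binds a TAMRA Cdk5 AP-1 oligo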
Details: purified delta FosB, at 25 µM, hits give high values, percent of positive-control signal above neutral wells

Q: For `COc1cccc(C(=O)CSc2nc3ccccc3n2CC(=O)N(C(C)C)C(C)C)c1`, which activation is on record?
A: inconclusive: 20.4%

Q: `Cn1c(C(=O)N2CCN(c3ccc([N+](=O)[O-])cc3)CC2)cc2c(=O)[nH]c3ccccc3c21` was tested. Which activation did it give?
A: active: 22.9%

Q: Which activation does the source give for `CN1/C(=C/C=N/n2cnnc2)C(C)(C)c2ccccc21` here?
A: active: 20.1%

Q: For `Cn1c(=O)c(C(=O)Nc2ncccc2O)c(O)c2ccccc21`, which activation is on record?
A: inconclusive: 18.3%

Q: `N#CCCN(C(=O)COC(=O)C1CCN(S(=O)(=O)c2ccc3c(c2)OCCO3)CC1)c1ccccc1` was tested. Which activation did it give?
A: inactive: -1.76%

Q: How did the activation turn out when `Cc1ccc(Sc2ccc(NC(=O)CCl)cc2)cc1C` was run?
A: inactive: -13%

Q: With `CCc1ccc(NC(=O)CN(c2ccc3c(c2)OCO3)S(=O)(=O)c2c(C)noc2C)cc1` as the compound, how does the activation read?
A: inconclusive: 16.4%

Q: Which activation does the source give for `CC(=O)Nc1ccc(NC(=O)c2ccc(NS(=O)(=O)c3cc(C(C)(C)C)ccc3C)cc2)cc1` here?
A: inconclusive: 26.4%

Q: With `Cc1ccc(N2CC(=O)N(NC(=O)Nc3ccc(Cl)c(Cl)c3)CC2=O)cc1` as the compound, how does the activation read?
A: inconclusive: 23.3%

Q: `Cc1ccc2nc(-c3ccc(NC(=O)CSc4nc(N)cc(=O)[nH]4)cc3)sc2c1` was tested. Which activation did it give?
A: inconclusive: 17.6%

Q: For `O=C(COC(=O)c1ccc(CO)cc1)c1ccc(S(=O)(=O)N2CCCCC2)cc1`, which activation is on record?
A: inconclusive: 16.6%

Q: How did the activation turn out when `COc1cc(/C=C2\SC(=S)N(NS(=O)(=O)c3ccccc3)C2=O)ccc1O` was run?
A: active: 20.9%

Q: `COc1ccc(N2CCN(C(=O)COc3ccc4c(C)cc(=O)oc4c3C)CC2)cc1` was tested. Which activation did it give?
A: inactive: -0.678%

Q: Which activation does the source give for `Cc1cc2oc3cc(NCCC4CCCN4C)ccc3c(=O)c2cc1C` (configuration not stated) here?
A: inconclusive: 16.4%

Q: With `Cc1ccc(-c2cc(C(=O)N/N=C/C=C/c3ccccc3)n[nH]2)s1` as the compound, how does the activation read?
A: inconclusive: 18%

Q: `CN(C)CCN(C(=O)c1ccc(Br)s1)c1nc2cc3c(cc2s1)OCCO3` was tested. Which activation did it give?
A: active: 18.6%

Q: Which activation does the source give for `COc1ccc(NC(=O)NNC(=O)COc2cc(C)c(Cl)c(C)c2)c(OC)c1` here?
A: inconclusive: 17.1%

Q: Which activation does the source give for `Cc1ccccc1C(=O)Nc1ccc(C(=O)NNC(=O)CCCOc2ccc(Cl)cc2Cl)cc1` here?
A: inconclusive: 19.3%

Q: How did the activation turn out when `CC[C@H](C)[C@H](NC(N)=O)C(=O)Nc1ccc(NC(C)=O)cc1` was run?
A: inactive: -4.61%

Q: For `CCCCN(CCCC)CCNC(=O)c1cn(CC)c2ccc(S(=O)(=O)N3CCc4ccccc4C3)cc2c1=O`, which activation is on record?
A: inconclusive: 17%

Q: `Cc1[nH]c2ccccc2c1/C=N/Nc1ccc([N+](=O)[O-])cc1` was tested. Which activation did it give?
A: inconclusive: 16.3%

Q: `O=C(Cc1cccc(NC(=O)C2CCN(S(=O)(=O)c3cccc([N+](=O)[O-])c3)CC2)c1)Nc1cccc(C(=O)N2CCCCC2)c1` was tested. Which activation did it give?
A: inactive: -4.12%
